The values below come from publication PMC2804594.

Amino acid sequences for entries named in this document (tags omitted). A change or cut given only in a name is not applied to a line headed by its entry. Residues count along the entry.
UniProt P03372: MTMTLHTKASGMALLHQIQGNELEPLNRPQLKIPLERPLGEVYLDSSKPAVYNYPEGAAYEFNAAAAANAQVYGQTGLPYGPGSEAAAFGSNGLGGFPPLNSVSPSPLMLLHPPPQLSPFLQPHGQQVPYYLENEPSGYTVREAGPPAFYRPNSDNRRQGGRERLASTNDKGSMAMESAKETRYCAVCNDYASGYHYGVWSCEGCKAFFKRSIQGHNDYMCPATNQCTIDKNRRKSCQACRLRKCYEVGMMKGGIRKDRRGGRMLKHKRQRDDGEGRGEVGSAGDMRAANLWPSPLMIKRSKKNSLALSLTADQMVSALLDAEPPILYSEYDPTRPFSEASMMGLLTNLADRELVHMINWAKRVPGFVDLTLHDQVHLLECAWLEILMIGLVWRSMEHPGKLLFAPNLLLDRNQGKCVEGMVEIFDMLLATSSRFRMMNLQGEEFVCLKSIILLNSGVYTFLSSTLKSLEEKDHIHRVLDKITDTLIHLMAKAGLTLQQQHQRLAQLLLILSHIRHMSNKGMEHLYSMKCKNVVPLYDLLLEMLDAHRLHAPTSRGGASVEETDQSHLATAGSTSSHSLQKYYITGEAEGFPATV
UniProt Q9BQ69: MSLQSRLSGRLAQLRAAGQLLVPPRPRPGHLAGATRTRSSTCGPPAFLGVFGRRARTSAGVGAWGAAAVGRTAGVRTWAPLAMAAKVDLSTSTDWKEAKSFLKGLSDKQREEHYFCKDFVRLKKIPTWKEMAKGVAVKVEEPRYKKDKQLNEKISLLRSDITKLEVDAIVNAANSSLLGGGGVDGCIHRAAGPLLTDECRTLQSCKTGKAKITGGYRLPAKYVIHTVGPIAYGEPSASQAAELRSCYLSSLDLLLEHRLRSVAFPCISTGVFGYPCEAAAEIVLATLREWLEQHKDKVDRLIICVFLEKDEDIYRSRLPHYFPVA
GST-LRP16-N (1-160): residues 1-160 of Q9BQ69
GST-LRP16-C (161-324): residues 161-324 of Q9BQ69

For assay [1], the target named is T1, Flag-K18-C1 (amino acids 301-430) (human) (UniProt P05783).
T1 sequence: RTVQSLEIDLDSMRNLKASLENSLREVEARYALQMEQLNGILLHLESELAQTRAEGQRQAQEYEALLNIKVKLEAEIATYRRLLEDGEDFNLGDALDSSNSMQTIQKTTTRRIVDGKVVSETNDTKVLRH
Put plainly: co-IP; MCF-7 cell lysates (20 mM Tris pH 7.4, 50 mM NaCl, 1 mM EDTA, 0.5% NP-40, 0.5% SDS, 0.5% deoxycholate; 2% Empigen BB to solubilize keratins), antibody overnight at 4°C, immunoblotting; cells transfected with LRP16, Flag-K18-C1, K18 or empty vector; in one panel treated with E2 (100 nM) for 1 h.

The target in assay [2] is T2, endogenous keratin 18 of MCF-7 cells (human (endogenous in MCF-7)) (UniProt P05783).
T2 sequence: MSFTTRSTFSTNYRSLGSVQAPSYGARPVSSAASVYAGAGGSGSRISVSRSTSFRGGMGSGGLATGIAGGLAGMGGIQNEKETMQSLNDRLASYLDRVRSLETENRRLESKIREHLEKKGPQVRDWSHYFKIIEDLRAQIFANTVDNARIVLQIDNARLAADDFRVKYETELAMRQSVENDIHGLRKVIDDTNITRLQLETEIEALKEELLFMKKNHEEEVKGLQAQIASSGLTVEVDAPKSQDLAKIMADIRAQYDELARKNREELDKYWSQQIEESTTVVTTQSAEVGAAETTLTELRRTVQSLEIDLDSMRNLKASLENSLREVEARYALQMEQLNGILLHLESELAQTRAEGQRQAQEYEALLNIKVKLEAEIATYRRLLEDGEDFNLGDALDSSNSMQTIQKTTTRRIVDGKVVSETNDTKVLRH
Described as above.

Assay [3] deals with estrogen receptor α of MCF-7 cells (human (endogenous in MCF-7)) (UniProt P03372). Described as above.
For assay [4], the target named is GST-LRP16 fusion protein (human) (UniProt Q9BQ69). Put plainly: pull-down; GST or GST fusion proteins with in vitro-translated 35S-labeled K18 and its deletion mutants; SDS-PAGE; only the target purified.
The target of assay [5] is endogenous LRP16 of MCF-7 cells (human (endogenous in MCF-7)) (UniProt Q9BQ69). Put plainly: co-IP; MCF-7 cell lysates (20 mM Tris pH 7.4, 50 mM NaCl, 1 mM EDTA, 0.5% NP-40, 0.5% SDS, 0.5% deoxycholate; 2% Empigen BB to solubilize keratins), antibody overnight at 4°C, immunoblotting; cells transfected with LRP16, Flag-K18-C1, K18 or empty vector; in one panel treated with E2 (100 nM) for 1 h.

Assay [6] has as its target Gal4 DNA binding domain-LRP16 fusion (pGBKT7-LRP16) (human) (UniProt Q9BQ69). Put plainly: two-hybrid; yeast AH109 transformed with GAL4-DBD and GAL4-AD chimeric constructs; chromogenic X-Gal assay and liquid ONPG beta-galactosidase assay.
For assay [7], the target named is GST-LRP16-C (161-324) (human) (UniProt Q9BQ69). The assay is described as follows: pull-down; GST or GST fusion proteins with in vitro-translated 35S-labeled K18 and its deletion mutants; SDS-PAGE; only the target purified.
Assay [8] deals with GST-LRP16-N (1-160) (human) (UniProt Q9BQ69). Described as above.

No constants are given. Whether binding was seen depends on the method and setting. For some of these results: In cells and extracts the contact can be indirect. Some binding calls cover weakened binding; strength is not graded here. For some of these results: Tags and fused reporters may be left off the sequences shown.

As for “endogenous LRP16 of MCF-7 cells (from UniProt Q9BQ69 1-325)”, the binding entry in assay [1], in assay [2] and in assay [3] was “binds” throughout.
In the case of “LRP16 expressed from pcDNA3.1-LRP16 in MCF-7 cells (from UniProt Q9BQ69 1-325)”, in assay [2], the binding entry is “binds”.

B1: K18-N (amino acids 1-150), in vitro translated (domain or fragment, UniProt P05783 1-150)
chain: MSFTTRSTFSTNYRSLGSVQAPSYGARPVSSAASVYAGAGGSGSRISVSRSTSFRGGMGSGGLATGIAGGLAGMGGIQNEKETMQSLNDRLASYLDRVRSLETENRRLESKIREHLEKKGPQVRDWSHYFKIIEDLRAQIFANTVDNARI
modifications: 35S-labeled
In the case of B1, the binding result in assay [4] is “no binding”.
With FNLGDALDSSNSMQTIQKTTTRRIVDGKVVSETNDTKVLRH (domain or fragment, UniProt P05783 390-430, 35S-labeled) [K18-C2 (390-430), in vitro translated], in assay [4], the binding entry is listed as “binds”.

B2: Flag-K18-C1 (amino acids 301-430) (domain or fragment, UniProt P05783 301-430)
chain: RTVQSLEIDLDSMRNLKASLENSLREVEARYALQMEQLNGILLHLESELAQTRAEGQRQAQEYEALLNIKVKLEAEIATYRRLLEDGEDFNLGDALDSSNSMQTIQKTTTRRIVDGKVVSETNDTKVLRH
On to B2, for which the binding entry in assay [5] was “binds”.

B3: K18-C1 (301-430), in vitro translated (domain or fragment, UniProt P05783 301-430)
chain: RTVQSLEIDLDSMRNLKASLENSLREVEARYALQMEQLNGILLHLESELAQTRAEGQRQAQEYEALLNIKVKLEAEIATYRRLLEDGEDFNLGDALDSSNSMQTIQKTTTRRIVDGKVVSETNDTKVLRH
modifications: 35S-labeled
As for B3, the binding result in assay [4] is recorded as “binds”.

B4: Gal4 activation domain-K18 fusion (pGADT7-K18) (protein, UniProt P05783 1-430)
chain: MSFTTRSTFSTNYRSLGSVQAPSYGARPVSSAASVYAGAGGSGSRISVSRSTSFRGGMGSGGLATGIAGGLAGMGGIQNEKETMQSLNDRLASYLDRVRSLETENRRLESKIREHLEKKGPQVRDWSHYFKIIEDLRAQIFANTVDNARIVLQIDNARLAADDFRVKYETELAMRQSVENDIHGLRKVIDDTNITRLQLETEIEALKEELLFMKKNHEEEVKGLQAQIASSGLTVEVDAPKSQDLAKIMADIRAQYDELARKNREELDKYWSQQIEESTTVVTTQSAEVGAAETTLTELRRTVQSLEIDLDSMRNLKASLENSLREVEARYALQMEQLNGILLHLESELAQTRAEGQRQAQEYEALLNIKVKLEAEIATYRRLLEDGEDFNLGDALDSSNSMQTIQKTTTRRIVDGKVVSETNDTKVLRH
B4: the binding entry in assay [6] is “binds”.

B5: in vitro-translated 35S-labeled full-length K18 (protein, UniProt P05783 1-430)
chain: MSFTTRSTFSTNYRSLGSVQAPSYGARPVSSAASVYAGAGGSGSRISVSRSTSFRGGMGSGGLATGIAGGLAGMGGIQNEKETMQSLNDRLASYLDRVRSLETENRRLESKIREHLEKKGPQVRDWSHYFKIIEDLRAQIFANTVDNARIVLQIDNARLAADDFRVKYETELAMRQSVENDIHGLRKVIDDTNITRLQLETEIEALKEELLFMKKNHEEEVKGLQAQIASSGLTVEVDAPKSQDLAKIMADIRAQYDELARKNREELDKYWSQQIEESTTVVTTQSAEVGAAETTLTELRRTVQSLEIDLDSMRNLKASLENSLREVEARYALQMEQLNGILLHLESELAQTRAEGQRQAQEYEALLNIKVKLEAEIATYRRLLEDGEDFNLGDALDSSNSMQTIQKTTTRRIVDGKVVSETNDTKVLRH
modifications: 35S-labeled
For B5, the binding result is given as “binds” in assay [4], “binds” in assay [7] and “binds weakly” in assay [8].

B6: ectopically expressed K18 in MCF-7 cells (K18 expression vector) (protein, UniProt P05783 1-430)
chain: MSFTTRSTFSTNYRSLGSVQAPSYGARPVSSAASVYAGAGGSGSRISVSRSTSFRGGMGSGGLATGIAGGLAGMGGIQNEKETMQSLNDRLASYLDRVRSLETENRRLESKIREHLEKKGPQVRDWSHYFKIIEDLRAQIFANTVDNARIVLQIDNARLAADDFRVKYETELAMRQSVENDIHGLRKVIDDTNITRLQLETEIEALKEELLFMKKNHEEEVKGLQAQIASSGLTVEVDAPKSQDLAKIMADIRAQYDELARKNREELDKYWSQQIEESTTVVTTQSAEVGAAETTLTELRRTVQSLEIDLDSMRNLKASLENSLREVEARYALQMEQLNGILLHLESELAQTRAEGQRQAQEYEALLNIKVKLEAEIATYRRLLEDGEDFNLGDALDSSNSMQTIQKTTTRRIVDGKVVSETNDTKVLRH
For B6, the binding result in assay [5] is on record as “binds”; in assay [3], “no binding”.

B7: endogenous keratin 18 of MCF-7 cells (protein, UniProt P05783 1-430)
chain: MSFTTRSTFSTNYRSLGSVQAPSYGARPVSSAASVYAGAGGSGSRISVSRSTSFRGGMGSGGLATGIAGGLAGMGGIQNEKETMQSLNDRLASYLDRVRSLETENRRLESKIREHLEKKGPQVRDWSHYFKIIEDLRAQIFANTVDNARIVLQIDNARLAADDFRVKYETELAMRQSVENDIHGLRKVIDDTNITRLQLETEIEALKEELLFMKKNHEEEVKGLQAQIASSGLTVEVDAPKSQDLAKIMADIRAQYDELARKNREELDKYWSQQIEESTTVVTTQSAEVGAAETTLTELRRTVQSLEIDLDSMRNLKASLENSLREVEARYALQMEQLNGILLHLESELAQTRAEGQRQAQEYEALLNIKVKLEAEIATYRRLLEDGEDFNLGDALDSSNSMQTIQKTTTRRIVDGKVVSETNDTKVLRH
For the molecule B7, the binding entry in assay [3] is given as “no binding”.

B8: K18-F (80-375), in vitro translated (domain or fragment, UniProt P05783 80-375)
chain: EKETMQSLNDRLASYLDRVRSLETENRRLESKIREHLEKKGPQVRDWSHYFKIIEDLRAQIFANTVDNARIVLQIDNARLAADDFRVKYETELAMRQSVENDIHGLRKVIDDTNITRLQLETEIEALKEELLFMKKNHEEEVKGLQAQIASSGLTVEVDAPKSQDLAKIMADIRAQYDELARKNREELDKYWSQQIEESTTVVTTQSAEVGAAETTLTELRRTVQSLEIDLDSMRNLKASLENSLREVEARYALQMEQLNGILLHLESELAQTRAEGQRQAQEYEALLNIKVKLEA
modifications: 35S-labeled
Take B8: in assay [4], the binding result is recorded as “no binding”.
